# Measurements published in patent publication US7619094B2, “Ketoamides with cyclic P4's as inhibitors of NS3 serine protease of hepatitis C virus” (Schering Corporation, priority 2004, dated 2009).
# Molecular target: Recombinant heterodimeric HCV NS3/NS4A protease (strain 1a) (Hepatitis C virus genotype 1a, UniProt P27958)
# Assay: HCV continuous assay (spectrophotometric HCV NS3/NS4A serine protease inhibition assay)
# Format: biochemical, HCV (strain 1a)
# Settings: Table 1; ranges of Ki* values in HCV continuous assay
row,SMILES,Ki [µM]
1,C=CCNC(=O)C(=O)C(CC1CCC1)NC(=O)[C@@H]1[C@@H]2[C@H](CN1C(=O)[C@@H](NC(=O)N[C@H](CN1CCCCS1(=O)=O)C(C)(C)C)C1CCCCC1)C2(C)C (some centres unmarked) [Compound 5182],≤ 0.05
2,C=CCNC(=O)C(=O)C(CCCC)NC(=O)[C@@H]1[C@@H]2[C@H](CN1C(=O)[C@@H](NC(=O)N[C@H](CN1CCCS1(=O)=O)C(C)C)C(C)(C)C)C2(C)C (some centres unmarked) [Compound 5111],≤ 0.05
3,CN1CCCN(C[C@@H](NC(=O)N[C@H](C(=O)N2C[C@H]3[C@@H]([C@H]2C(=O)NC(CC2CCC2)C(=O)C(N)=O)C3(C)C)C2CCCCC2)C(C)(C)C)S1(=O)=O (some centres unmarked) [Compound 5244],≤ 0.05
4,C=CCNC(=O)C(=O)C(CCC)NC(=O)[C@@H]1[C@@H]2[C@H](CN1C(=O)[C@@H](NC(=O)N[C@H](CN1CCCS1(=O)=O)C(C)(C)C)C1CCCCC1)C2(C)C (some centres unmarked) [Compound 5134],≤ 0.05
5,C=CCNC(=O)C(=O)C(CC1CCC1)NC(=O)[C@@H]1[C@@H]2[C@H](CN1C(=O)[C@@H](NC(=O)N[C@H](CN1CCCS1(=O)=O)C(C)(C)C)C(C)(C)C)C2(C)C (some centres unmarked) [Compound 5144],≤ 0.05
6,CC(C)(C)[C@H](NC(=O)NC1(CN2Cc3sccc3S2(=O)=O)CCCCC1)C(=O)N1C[C@H]2[C@@H]([C@H]1C(=O)NC(CC1CCC1)C(=O)C(N)=O)C2(C)C (some centres unmarked) [Compound 5212],≤ 0.05
7,CCCCC(NC(=O)[C@@H]1[C@@H]2[C@H](CN1C(=O)[C@@H](NC(=O)NC1(CN3Cc4sccc4S3(=O)=O)CCCCC1)C(C)(C)C)C2(C)C)C(=O)C(N)=O (some centres unmarked) [Compound 5214],≤ 0.05
8,CN1CCCN(C[C@@H](NC(=O)N[C@H](C(=O)N2C[C@H]3[C@@H]([C@H]2C(=O)NC(CC2CC2)C(=O)C(N)=O)C3(C)C)C2CCCCC2)C(C)(C)C)S1(=O)=O (some centres unmarked) [Compound 5243],≤ 0.05
9,C=CCNC(=O)C(=O)C(CCCC)NC(=O)[C@@H]1[C@@H]2[C@H](CN1C(=O)[C@@H](NC(=O)N[C@H](CN1CCCS1(=O)=O)C(C)(C)C)C(C)(C)C)C2(C)C (some centres unmarked) [Compound 5112],≤ 0.05
10,C=CCNC(=O)C(=O)C(CCC)NC(=O)[C@@H]1[C@@H]2[C@H](CN1C(=O)[C@@H](NC(=O)N[C@H](CN1Cc3sccc3S1(=O)=O)C(C)(C)C)C1(C)CCCCC1)C2(C)C (some centres unmarked) [Compound 5255],≤ 0.05
11,C=CCNC(=O)C(=O)C(CCCC)NC(=O)[C@@H]1[C@@H]2[C@H](CN1C(=O)[C@@H](NC(=O)N[C@H](CN1CCCCS1(=O)=O)C(C)(C)C)C(C)(C)C)C2(C)C (some centres unmarked) [Compound 5191],≤ 0.05
12,CN1CCCN(C[C@@H](NC(=O)N[C@H](C(=O)N2C[C@H]3[C@@H]([C@H]2C(=O)NC(CC2CCC2)C(=O)C(N)=O)C3(C)C)C(C)(C)C)C(C)(C)C)S1(=O)=O (some centres unmarked) [Compound 5131],≤ 0.05
13,CCCCC(NC(=O)[C@@H]1[C@@H]2[C@H](CN1C(=O)[C@@H](NC(=O)N[C@H](CN1CCCCS1(=O)=O)C(C)(C)C)C(C)(C)C)C2(C)C)C(=O)C(N)=O (some centres unmarked) [Compound 5200],≤ 0.05
14,C#CCCC(NC(=O)[C@@H]1[C@@H]2[C@H](CN1C(=O)[C@@H](NC(=O)N[C@H](CN1Cc3sccc3S1(=O)=O)C(C)(C)C)C1CCCCC1)C2(C)C)C(=O)C(=O)NCC=C (some centres unmarked) [Compound 5194],≤ 0.05
15,C=CCNC(=O)C(=O)C(CC1CC1)NC(=O)[C@@H]1[C@@H]2[C@H](CN1C(=O)[C@@H](NC(=O)N[C@H](CN1CCCCS1(=O)=O)C(C)(C)C)C1CCCCC1)C2(C)C (some centres unmarked) [Compound 5176],≤ 0.05
16,CC(C)(C)[C@@H](CN1Cc2ccccc2S1(=O)=O)NC(=O)N[C@H](C(=O)N1C[C@H]2[C@@H]([C@H]1C(=O)NC(CC1CCC1)C(=O)C(N)=O)C2(C)C)C1CCCCC1 (some centres unmarked) [Compound 5254],≤ 0.05
17,CC(C)(C)[C@H](NC(=O)N[C@H](CN1Cc2ccccc2S1(=O)=O)C1CCCCC1)C(=O)N1C[C@H]2[C@@H]([C@H]1C(=O)NC(CC1CC1)C(=O)C(N)=O)C2(C)C (some centres unmarked) [Compound 5226],≤ 0.05
18,C=CCNC(=O)C(=O)C(CCCC)NC(=O)[C@@H]1[C@@H]2[C@H](CN1C(=O)[C@@H](NC(=O)N[C@H](CN1Cc3sccc3S1(=O)=O)C(C)(C)C)C1(C)CCCCC1)C2(C)C (some centres unmarked) [Compound 5256],≤ 0.05

# Same assay, conditions: Table 2; ranges of Ki* values in HCV continuous assay
row,SMILES,Ki [µM]
1,CC(C)(C)[C@H](NC(=O)N[C@H](CN1C(=O)CCCC1=O)C(C)(C)C)C(=O)N1C[C@H]2[C@@H]([C@H]1C(=O)NC(CC1CCC1)C(=O)C(N)=O)C2(C)C (some centres unmarked) [Compound 5675],≤ 0.05
2,C=CCNC(=O)C(=O)C(CC1CCC1)NC(=O)[C@@H]1[C@@H]2[C@H](CN1C(=O)[C@@H](NC(=O)N[C@H](CN1CCCN(C)C1=O)C(C)(C)C)C(C)(C)C)C2(C)C (some centres unmarked) [Compound 5693],> 0.05
3,C=CCNC(=O)C(=O)C(CC1CCC1)NC(=O)[C@@H]1[C@@H]2[C@H](CN1C(=O)[C@@H](NC(=O)N[C@H](CN1CCCCC1=O)C1CCCCC1)C(C)(C)C)C2(C)C (some centres unmarked) [Compound 5736],≤ 0.05
4,C=CCNC(=O)C(=O)C(CCCC)NC(=O)[C@@H]1[C@@H]2[C@H](CN1C(=O)[C@@H](NC(=O)N[C@H](CN1CCOC1=O)C(C)C)C(C)(C)C)C2(C)C (some centres unmarked) [Compound 5617],≤ 0.05
5,C=CCNC(=O)C(=O)C(CC1CC1)NC(=O)[C@@H]1[C@@H]2[C@H](CN1C(=O)[C@@H](NC(=O)N[C@H](CN1C(=O)CCC1=O)C(C)(C)C)C(C)(C)C)C2(C)C (some centres unmarked) [Compound 5636],≤ 0.05
6,CC(C)(C)[C@H](NC(=O)N[C@H](CN1CCOC1=O)C(C)(C)C)C(=O)N1C[C@H]2[C@@H]([C@H]1C(=O)NC(CC1CCC1)C(=O)C(N)=O)C2(C)C (some centres unmarked) [Compound 5628],≤ 0.05
7,C=CCNC(=O)C(=O)C(CCCC)NC(=O)[C@@H]1[C@@H]2[C@H](CN1C(=O)[C@@H](NC(=O)N[C@H](CN1CCCCC1=O)C(C)(C)C)C1Cc3ccccc3C1)C2(C)C (some centres unmarked) [Compound 5725],≤ 0.05
8,C=CCNC(=O)C(=O)C(CC1CCC1)NC(=O)[C@@H]1[C@@H]2[C@H](CN1C(=O)[C@@H](NC(=O)N[C@H](CN1C(=O)CCCC1=O)C(C)(C)C)C(C)(C)C)C2(C)C (some centres unmarked) [Compound 5672],≤ 0.05
9,CC(C)[C@@H](Cn1ccccc1=O)NC(=O)N[C@H](C(=O)N1C[C@H]2[C@@H]([C@H]1C(=O)NC(CC1CC1)C(=O)C(N)=O)C2(C)C)C(C)(C)C (some centres unmarked) [Compound 5603],≤ 0.05
10,CN1CCCN(C[C@@H](NC(=O)N[C@H](C(=O)N2C[C@H]3[C@@H]([C@H]2C(=O)NC(CC2CCC2)C(=O)C(N)=O)C3(C)C)C(C)(C)C)C(C)(C)C)C1=O (mixture of isomers) [Compound 5688],≤ 0.05
11,C=CCNC(=O)C(=O)C(CCCC)NC(=O)[C@@H]1[C@@H]2[C@H](CN1C(=O)[C@@H](NC(=O)N[C@H](CN1CCCCC1=O)C1CCCCC1)C(C)(C)C)C2(C)C (some centres unmarked) [Compound 5730],≤ 0.05
12,C=CCNC(=O)C(=O)C(CCC)NC(=O)[C@@H]1[C@@H]2[C@H](CN1C(=O)[C@@H](NC(=O)N[C@H](CN1CCCCC1=O)C(C)C)C(C)(C)C)C2(C)C (some centres unmarked) [Compound 5633],≤ 0.05
13,CCCC(NC(=O)[C@@H]1[C@@H]2[C@H](CN1C(=O)[C@@H](NC(=O)N[C@H](CN1CCCCC1=O)C(C)(C)C)C1Cc3ccccc3C1)C2(C)C)C(=O)C(=O)NC1CC1 (some centres unmarked) [Compound 5789],≤ 0.05
14,C=CCNC(=O)C(=O)C(CCC(F)(F)F)NC(=O)[C@@H]1[C@@H]2[C@H](CN1C(=O)[C@@H](NC(=O)N[C@H](CN1CCCCC1=O)C(C)(C)C)C(C)(C)C)C2(C)C (some centres unmarked) [Compound 5662],≤ 0.05
15,C=CCNC(=O)C(=O)C(CCC)NC(=O)[C@@H]1[C@@H]2[C@H](CN1C(=O)[C@@H](NC(=O)N[C@H](CN1CCCN(C)C1=O)C(C)(C)C)C(C)(C)C)C2(C)C (some centres unmarked) [Compound 5685],> 0.05
16,C=CCNC(=O)C(=O)C(CCCC)NC(=O)[C@@H]1[C@@H]2[C@H](CN1C(=O)[C@@H](NC(=O)N[C@H](CN1CCCCC1=O)C(C)(C)C)C1(C)CCCCC1)C2(C)C (some centres unmarked) [Compound 5781],≤ 0.05
17,C=CCNC(=O)C(=O)C(CCCC)NC(=O)[C@@H]1[C@@H]2[C@H](CN1C(=O)[C@@H](NC(=O)N[C@H](CN1C(=O)CCC1=O)C(C)(C)C)C(C)(C)C)C2(C)C (some centres unmarked) [Compound 5647],≤ 0.05
18,CNC(=O)C(=O)C(CC1CC1)NC(=O)[C@@H]1[C@@H]2[C@H](CN1C(=O)[C@@H](NC(=O)N[C@H](CN1C(=O)CCC1=O)C(C)(C)C)C(C)(C)C)C2(C)C (some centres unmarked) [Compound 5640],≤ 0.05
19,C=CCNC(=O)C(=O)C(CCC(F)(F)F)NC(=O)[C@@H]1[C@@H]2[C@H](CN1C(=O)[C@@H](NC(=O)N[C@H](CN1CCCCC1=O)C(C)(C)C)C1CCCCC1)C2(C)C (some centres unmarked) [Compound 5720],≤ 0.05
20,C=CCNC(=O)C(=O)C(CC1CC1)NC(=O)[C@@H]1[C@@H]2[C@H](CN1C(=O)[C@@H](NC(=O)N[C@H](CN1C(=O)CCCC1=O)C(C)(C)C)C(C)(C)C)C2(C)C (some centres unmarked) [Compound 5670],≤ 0.05
21,C#CCCC(NC(=O)[C@@H]1[C@@H]2[C@H](CN1C(=O)[C@@H](NC(=O)N[C@H](CN1Cc3ccccc3C1=O)C(C)(C)C)C1CCCCC1)C2(C)C)C(=O)C(=O)NCC=C (some centres unmarked) [Compound 5764],≤ 0.05
22,CCCCC(NC(=O)[C@@H]1[C@@H]2[C@H](CN1C(=O)[C@@H](NC(=O)N[C@H](CN1CCCCC1=O)C(C)(C)C)C1Cc3ccccc3C1)C2(C)C)C(=O)C(=O)NCC (some centres unmarked) [Compound 5791],≤ 0.05
23,C#CCCC(NC(=O)[C@@H]1[C@@H]2[C@H](CN1C(=O)[C@@H](NC(=O)NC1(CN3C(=O)c4ccccc4C3=O)CCCCC1)C(C)(C)C)C2(C)C)C(=O)C(=O)NCC=C (some centres unmarked) [Compound 5696],≤ 0.05
24,C=CCNC(=O)C(=O)C(CC1CC1)NC(=O)[C@@H]1[C@@H]2[C@H](CN1C(=O)[C@@H](NC(=O)N[C@@H](CC(C)C)CN1CCCNC1=O)C(C)(C)C)C2(C)C (some centres unmarked) [Compound 5656],> 0.05
25,C=CCNC(=O)C(=O)C(CCCC)NC(=O)[C@@H]1[C@@H]2[C@H](CN1C(=O)[C@@H](NC(=O)N[C@H](CN1C(=O)CC(C)(C)CC1=O)C(C)(C)C)C1CCCCC1)C2(C)C (some centres unmarked) [Compound 5777],≤ 0.05
26,C=CCNC(=O)C(=O)C(CC1CCC1)NC(=O)[C@@H]1[C@@H]2[C@H](CN1C(=O)[C@@H](NC(=O)N[C@H](CN1C(=O)CC(C)(C)CC1=O)C(C)(C)C)C(C)(C)C)C2(C)C (some centres unmarked) [Compound 5755],≤ 0.05
27,CCCC(NC(=O)[C@@H]1[C@@H]2[C@H](CN1C(=O)[C@@H](NC(=O)N[C@H](CN1CCCCC1=O)C(C)(C)C)C(C)(C)C)C2(C)C)C(=O)C(=O)NC1CC1 (some centres unmarked) [Compound 5735],≤ 0.05

# Same assay, conditions: Table 4; Ki* values
row,SMILES,Ki [µM]
1,C=CCNC(=O)C(=O)C(CCCC)NC(=O)[C@@H]1[C@@H]2[C@H](CN1C(=O)[C@@H](NC(=O)N[C@H](CN1CCCCC1=O)C(C)(C)C)C1(C)CCCCC1)C2(C)C (some centres unmarked) [Compound 5781],0.009
2,C=CCNC(=O)C(=O)C(CC1CCC1)NC(=O)[C@@H]1[C@@H]2[C@H](CN1C(=O)[C@@H](NC(=O)N[C@H](CN1C(=O)CC(C)(C)CC1=O)C(C)(C)C)C(C)(C)C)C2(C)C (some centres unmarked) [Compound 5755],0.007
